Some of the results follow. At the low end of the ranking the order means little.
These sequences were tested on T1, GST-NbGlk1(82-244) (assay: protein-binding microarray). Settings: NbGlk1 is a Golden2-like transcription factor of Nicotiana benthamiana; high values mean tight binding; most listed sequences are background and not binding sites; double strand, one strand shown.
T1 sequence: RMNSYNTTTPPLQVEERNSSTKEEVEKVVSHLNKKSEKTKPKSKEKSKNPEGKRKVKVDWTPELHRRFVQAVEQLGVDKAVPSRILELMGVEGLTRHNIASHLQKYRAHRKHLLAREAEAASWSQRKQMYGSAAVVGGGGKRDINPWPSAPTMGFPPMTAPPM
With ACGTGCGA the binding signal was 0.0367 E-score.
AGTGGAGA was tested, and the binding signal was 0.11 E-score.
With AAGCCCGG the binding signal was -0.358 E-score.
Work on ATACCCCC yielded a binding signal of -0.0125 E-score.
In the case of AAGAGCAC, the binding signal is reported as -0.142 E-score.
Sequence AGGATGTC has a binding signal of -0.131 E-score.
AGTAAACC gave a binding signal of -0.159 E-score.
ACCCACGG gave a binding signal of -0.115 E-score.
ACCAACTG was tested, and the binding signal was -0.0572 E-score.
ATCGCGGG showed a binding signal of 0.261 E-score.
CAAGTTGG gave a binding signal of -0.179 E-score.
Work on ATGCTTAG yielded a binding signal of -0.0426 E-score.
AATCCAGA showed a binding signal of 0.349 E-score.
AAAACAAT showed a binding signal of 0.143 E-score.
AGCCTGAG showed a binding signal of -0.158 E-score.
Sequence ACTGGTAG has a binding signal of -0.191 E-score.
In the case of CACACTGC, the binding signal is reported as -0.198 E-score.
AATTATCG gave a binding signal of 0.131 E-score.
Work on ATTTCAAC yielded a binding signal of 0.19 E-score.
Work on AGGTTTTG yielded a binding signal of -0.0377 E-score.
In the case of ACTTGATC, the binding signal is reported as -0.0283 E-score.
With AGCTATGC the binding signal was -0.141 E-score.
AGGACGGA was tested, and the binding signal was -0.146 E-score.
CAACCCGA showed a binding signal of -0.0868 E-score.
ACGTGGGC gave a binding signal of -0.104 E-score.
In the case of ACAAACCA, the binding signal is reported as 0.1 E-score.
AGCATGCG was tested, and the binding signal was -0.172 E-score.
ATAATAGA was tested, and the binding signal was 0.138 E-score.
AAGGGATA showed a binding signal of 0.18 E-score.
CAGCGTAC gave a binding signal of -0.251 E-score.
ACGTCGAC gave a binding signal of -0.0609 E-score.
ACGGCATG was tested, and the binding signal was -0.123 E-score.
AATATAGA showed a binding signal of 0.271 E-score.
AGTTGTCA showed a binding signal of 0.0329 E-score.
Sequence ACGCGAAT has a binding signal of 0.244 E-score.
With AAACAATG the binding signal was -0.0893 E-score.
Work on ACAGAAAT yielded a binding signal of 0.248 E-score.
ACATGACC was tested, and the binding signal was -0.211 E-score.
AATCTATG showed a binding signal of 0.38 E-score.
AGGTACCT was tested, and the binding signal was -0.256 E-score.
Work on AGCTTGAT yielded a binding signal of -0.00356 E-score.
Work on AACTGACC yielded a binding signal of -0.22 E-score.
For AAAAAAAT, the binding signal was 0.286 E-score.
Work on AGCCAGTC yielded a binding signal of -0.21 E-score.
In the case of ACCGTAGA, the binding signal is reported as -0.0538 E-score.
Work on ATGAGTGA yielded a binding signal of -0.0807 E-score.
Work on ATGTCGTA yielded a binding signal of 0.0977 E-score.
ACTACTGC showed a binding signal of -0.104 E-score.
ATACTTCG showed a binding signal of -0.0227 E-score.
Work on AAACATCC yielded a binding signal of -0.0108 E-score.
AATAGCCG showed a binding signal of -0.0189 E-score.
In the case of ACCTCCTA, the binding signal is reported as -0.307 E-score.
CAATAGTG showed a binding signal of -0.0417 E-score.
With CAACCTGG the binding signal was -0.243 E-score.
With AGTTATCA the binding signal was 0.0517 E-score.
ACTGAACA showed a binding signal of -0.0555 E-score.
With ACCATGCC the binding signal was -0.121 E-score.
Work on AATATCGC yielded a binding signal of 0.331 E-score.
ATGACGTA was tested, and the binding signal was 0.0469 E-score.
In the case of ATGCCCAA, the binding signal is reported as 0.022 E-score.
CACGCGAA showed a binding signal of -0.0174 E-score.
Sequence AACGACAC has a binding signal of -0.107 E-score.
In the case of AGTCCATC, the binding signal is reported as -0.272 E-score.
Sequence AATTTCGT has a binding signal of 0.284 E-score.
AGTATATC was tested, and the binding signal was 0.188 E-score.
CAAACTTC was tested, and the binding signal was -0.142 E-score.
With AAGGAATT the binding signal was 0.145 E-score.
Sequence AATGGGAC has a binding signal of -0.173 E-score.
With ACCGTAAT the binding signal was 0.357 E-score.
In the case of ATTGCGGC, the binding signal is reported as 0.173 E-score.
AGCCTGTA showed a binding signal of -0.113 E-score.
Work on ATTTAGTC yielded a binding signal of 0.0646 E-score.
ACATGACA showed a binding signal of 0.0202 E-score.
In the case of AGGGATTA, the binding signal is reported as 0.168 E-score.
CACCACAC gave a binding signal of -0.102 E-score.
ACTATCTA was tested, and the binding signal was 0.0793 E-score.
For AGTCACTC, the binding signal was -0.192 E-score.
In the case of ACTAAGAG, the binding signal is reported as -0.0811 E-score.
With AGGTTTCG the binding signal was -0.101 E-score.
AGCCCCCG gave a binding signal of -0.317 E-score.
ATAACGTA was tested, and the binding signal was 0.205 E-score.
AACCTGGA was tested, and the binding signal was -0.235 E-score.
Work on ACTATAAA yielded a binding signal of 0.145 E-score.
Work on ATAGCGAG yielded a binding signal of -0.0611 E-score.
For AGACGTCT, the binding signal was 0.0763 E-score.
AGCTTTTG showed a binding signal of -0.0427 E-score.
For AAGTAGGA, the binding signal was -0.0543 E-score.
Sequence AGTGGCTG has a binding signal of -0.123 E-score.
ATCATGTC was tested, and the binding signal was 0.221 E-score.
ACCCTTGC showed a binding signal of -0.134 E-score.
AGATTATC showed a binding signal of 0.398 E-score.
CAATGTTC was tested, and the binding signal was -0.169 E-score.
Sequence AGGTTACC has a binding signal of -0.206 E-score.
Sequence AGGGACCA has a binding signal of -0.175 E-score.
ATTCTTAG was tested, and the binding signal was 0.253 E-score.
ACTTCGAC showed a binding signal of -0.0959 E-score.
ATAAGATA was tested, and the binding signal was 0.301 E-score.
Work on ATCACTAG yielded a binding signal of 0.105 E-score.
AACCCGCA was tested, and the binding signal was 0.0128 E-score.
CAACAACA gave a binding signal of -0.105 E-score.
Sequence AGTAATCG has a binding signal of 0.296 E-score.
ACTTGGGA was tested, and the binding signal was 0.0331 E-score.
AGGGGGCG was tested, and the binding signal was -0.273 E-score.
In the case of ATACGTAC, the binding signal is reported as 0.164 E-score.
Work on ATCTGGGC yielded a binding signal of 0.168 E-score.
ACGTTAAT was tested, and the binding signal was 0.0455 E-score.
ATTACTAG gave a binding signal of 0.207 E-score.
ATTCTAAC showed a binding signal of 0.138 E-score.
With ATTAGTGA the binding signal was -0.0279 E-score.
AAGCTCAT was tested, and the binding signal was -0.231 E-score.
With ATGCCTTA the binding signal was -0.13 E-score.
In the case of ATGACTTG, the binding signal is reported as 0.0069 E-score.
ACGGACAC was tested, and the binding signal was -0.132 E-score.
ATTTTATC showed a binding signal of 0.234 E-score.
In the case of CACGCAAA, the binding signal is reported as -0.079 E-score.
With ATGTGCGC the binding signal was 0.0151 E-score.
In the case of CACAGACA, the binding signal is reported as -0.0348 E-score.
In the case of CACCCGGA, the binding signal is reported as -0.0101 E-score.
With ATCGGTAG the binding signal was 0.0952 E-score.
In the case of ATCAGGCG, the binding signal is reported as 0.0622 E-score.
With CAATATCA the binding signal was 0.299 E-score.
Work on AGGACAAA yielded a binding signal of 0.0486 E-score.
With ACGAGTAA the binding signal was 0.0537 E-score.
AACGACTA gave a binding signal of 0.0231 E-score.
For ACAACACG, the binding signal was -0.0386 E-score.
In the case of CAATGTTA, the binding signal is reported as 0.0284 E-score.
In the case of AACAAGAG, the binding signal is reported as -0.0996 E-score.
For AGCGAGAT, the binding signal was 0.269 E-score.
AAAAAGGA gave a binding signal of 0.0743 E-score.
With AACGTAGA the binding signal was 0.18 E-score.
In the case of ACCACTGC, the binding signal is reported as -0.164 E-score.
For AATCTGGA, the binding signal was 0.452 E-score.
CAGAAACC gave a binding signal of -0.138 E-score.
ATAGAAGA showed a binding signal of 0.107 E-score.
ACAGCAAA showed a binding signal of 0.152 E-score.
ACTAGACT showed a binding signal of -0.0748 E-score.
ACAGCCTG showed a binding signal of -0.241 E-score.
Work on ATAGTTGG yielded a binding signal of -0.119 E-score.
ATAGATAG gave a binding signal of 0.111 E-score.
In the case of ACTACATG, the binding signal is reported as 0.0482 E-score.
Sequence ACAGCTTC has a binding signal of -0.152 E-score.
AGCACCAT was tested, and the binding signal was -0.195 E-score.
Work on AACGAAAA yielded a binding signal of 0.0746 E-score.
In the case of AGCGTTTC, the binding signal is reported as -0.0549 E-score.
Sequence AATAACGT has a binding signal of 0.104 E-score.
Sequence ACTACATC has a binding signal of 0.0631 E-score.
In the case of AACTCCGT, the binding signal is reported as -0.0965 E-score.
Work on ATACTTTG yielded a binding signal of 0.0712 E-score.
Work on AAGTGTAA yielded a binding signal of 0.0974 E-score.
With ATAAATAC the binding signal was 0.0649 E-score.
AATTTTGA was tested, and the binding signal was 0.141 E-score.
AGATGTCG showed a binding signal of 0.0628 E-score.
For ACAATTCT, the binding signal was 0.124 E-score.
Sequence ATTTCGTC has a binding signal of 0.303 E-score.
Work on CAGCGGAC yielded a binding signal of -0.0728 E-score.
AATTAACT showed a binding signal of 0.0439 E-score.
For ACCCGGGG, the binding signal was -0.111 E-score.
Sequence AGTGTCAG has a binding signal of 0.00478 E-score.
For ACATTACA, the binding signal was 0.1 E-score.
With AGTAAGTC the binding signal was -0.171 E-score.
CAATTAGA gave a binding signal of 0.108 E-score.
ACTAATGG gave a binding signal of 0.0235 E-score.
ATCGTTCA showed a binding signal of 0.131 E-score.
CACTTACG showed a binding signal of 0.0455 E-score.
Sequence ACGTCGCA has a binding signal of -0.0568 E-score.
For ACCCTTAT, the binding signal was -0.149 E-score.
With ACTTAATC the binding signal was 0.0719 E-score.
In the case of AACCAAGG, the binding signal is reported as -0.143 E-score.
ACGATCCA showed a binding signal of 0.12 E-score.
With CACAAGTG the binding signal was -0.205 E-score.
In the case of CACTACAC, the binding signal is reported as 0.0378 E-score.
With ATACCTCA the binding signal was 0.0717 E-score.

Source: article PMC5836133
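Further: rank-based score ranging −0.5 to +0.5 with E above 0.45 taken as significant binding.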
